Data published in PubChem BioAssay AID1347120 (National Center for Advancing Translational Sciences (NCATS), 2019).
About 930 (0.24%) of roughly 390,000 compounds were called active. Inconclusive means that the source gave no clear call. Such entries were picked first, then a sample of the others. Calls come from the whole dose curve; as a rule, active = well fitted activation curve with a large enough effect; inconclusive = small, poorly fitted or top-dose-only effect; inactive = no such curve, though single readings can be large or run the other way. Where the call is inconclusive, the potency comes from a doubtful curve fit.

assay: qHTS for Suppressors of FUS Proteinopathy: Primary screen using FUS-linked yeast assay; note: nearly all actives have a fitted effect of over 55% in size; conditions: S. cerevisiae FUS-expressing, OD600, 24 h; Potency: growth rescue; series mostly up to 76.6 µM
Procedure, shortened: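 Toxicity suppression screen in FUS-yeast. Cells induced with 2% galactose, starting OD 0.005, treated 24hr at 30C with compounds at multiple final concentrations; growth by OD600.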
Potency is the fitted concentration of half-maximal effect; tags give direction and shape of the fitted curve.

Compound | Potency
CCN(CC)S(=O)(=O)c1ccc(O)c(C(=O)OCC(=O)N2c3ccccc3CC2C)c1 (centres undefined) | inconclusive: 50.1 µM [activator, single point]
Cc1cc(C)cc(OCc2cc(=O)n3c4c(sc3n2)CCCC4)c1 | inactive
CCn1c2ccccc2c2cc(NC(=O)CSc3nnc(C4CC4)n3Cc3ccco3)ccc21 | inconclusive: 22.4 µM [activator, partial curve, poor fit]
Cc1ccc(S(=O)(=O)N2CCCOC2CNC(=O)C(=O)NCCc2c[nH]c3ccccc23)cc1 (centres undefined) | inconclusive: 44.7 µM [activator, single point]
O=C(NNC(=O)c1ccccn1)c1ccc(OC(F)F)cc1 | inactive
Cc1ccc(-n2c(=O)c3oc4ccccc4c3n(CC(=O)Nc3ccc(F)c(Cl)c3)c2=O)cc1C | inactive
O=C(Cn1ncc2c1-c1ccccc1OC2)N1CCN(c2ccccn2)CC1 | inactive
O=C1CN(C(=O)CSc2nc3ccccc3n2CCc2ccccc2)c2ccccc2N1 | inconclusive: 14.1 µM [activator, partial curve, poor fit]
COCCCN=C1NN=C(c2cc(C)n(-c3ccccc3)c2C)CS1 | inconclusive: 10 µM [activator, partial curve, poor fit]
CCc1ccccc1NC(=O)C(CC)Oc1ccccc1-c1nnc(-c2ccccc2)o1 (centres undefined) | inconclusive: 25.1 µM [activator, single point]
COc1ccc(C2(C)NC(=O)N(Cc3cc(Cl)cc4c3OCOC4)C2=O)cc1OC (centres undefined) | active: 35.5 µM
CN1C(c2ccc(F)cc2)=CS/C1=C(/C#N)c1nnc2n1-c1ccccc1SC2 | inconclusive: 11.2 µM [activator, partial curve]
CCOC(=O)C1CCCN(C(=O)c2cc3nc(-c4cccc(OC)c4)cc(C(F)(F)F)n3n2)C1 (centres undefined) | inconclusive: 22.4 µM [activator, single point]
COc1ccc(S(=O)(=O)NCCc2sc3nc(-c4ccc(C)cc4)nn3c2C)cc1F | inactive
O=C(C1CCCN(S(=O)(=O)c2ccc(F)cc2)C1)N1CCN(Cc2ccccc2)CC1 (centres undefined) | inactive
Cc1ccc(-n2c(C)cc(/C=N/NC(=O)CN(c3ccc(C)cc3C)S(C)(=O)=O)c2C)cc1 | inconclusive: 12.6 µM [activator, partial curve, poor fit]
Cc1cc(N)n(-c2ccc(C)c(C)c2)n1 | inconclusive: 25.1 µM [activator, partial curve, poor fit]
Cn1cnc(S(=O)(=O)N2CCCC(C(=O)NCc3ccccc3)C2)c1 (centres undefined) | inactive
Cc1ccc(NC(=O)C2CCCN2S(=O)(=O)c2ccc3c(c2)C(C)(C)C(=O)N3C)cc1 (centres undefined) | inactive
